Consider 83 molecules from PubChem BioAssay AID1346428 (National Center for Advancing Translational Sciences (NCATS), 2018).

The whole screen tested about 48,000 compounds, of which about 1,200 (2.5%) were called active. Not shown: some 2% with an inconclusive outcome.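 Rule for the calls: active = activation of at least 60% and not above a set upper limit (about 1 call in 100 departs from these limits); inconclusive = activation of 40% to 60%, or above that upper limit; inactive = activation under 40%.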 Some of the results follow.

For the assay, the target named is Probable G-protein coupled receptor 32 (Homo sapiens) (UniProt O75388). Briefly: qHTS for Agonists of Human Resolvin D1 Receptor DRV1. Note: 0% is about no effect. Conditions: CHO-K1 GPR32 beta-arrestin PathHunter luminescence, 90 min; at 76.9 µM; hits give high values; zero percent set by DMSO-only wells. In a few lines: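 Cells are plated overnight, treated with compounds in DMSO for 90 minutes at 37 °C, and developed with PathHunter detection reagent for 1 hour before luminescence is read; signal reflects beta-arrestin binding to GPR32 in engineered CHO-K1 cells.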
Sequence of UniProt O75388 (O75388 whole entry, looked up): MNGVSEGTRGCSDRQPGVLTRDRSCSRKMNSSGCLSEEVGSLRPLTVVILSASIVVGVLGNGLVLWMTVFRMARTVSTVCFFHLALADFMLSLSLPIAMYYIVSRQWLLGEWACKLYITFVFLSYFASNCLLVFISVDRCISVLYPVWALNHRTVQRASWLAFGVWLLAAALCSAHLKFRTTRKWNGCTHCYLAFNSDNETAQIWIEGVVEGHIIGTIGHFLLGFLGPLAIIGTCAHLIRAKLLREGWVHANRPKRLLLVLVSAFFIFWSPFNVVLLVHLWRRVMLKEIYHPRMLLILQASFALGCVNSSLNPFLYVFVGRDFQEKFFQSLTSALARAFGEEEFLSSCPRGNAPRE
In the case of `CCOC(=O)c1c(C)[nH]c(C)c1S(=O)(=O)N1CCCC(C(=O)NCc2ccc(Cl)cc2)C1` (stereo not drawn), the activation is inactive: 7.23%. In the case of `CCOCCCNC(=O)CN1C(=O)COc2ccc(S(=O)(=O)N3CCCC3)cc21` it was inactive: -2.21%; in that of `Cc1ccc(CNC(=O)c2c[nH]n3c(=O)c(Cc4ccc(Cl)cc4)c(C)nc23)cc1`, inactive: 5.28%; in that of `CC(=O)c1ccc(NS(=O)(=O)c2ccc3[nH]c4c(c3c2)CCCC4)cc1`, inactive: 19.6%.

For the molecule `Cn1c(=O)oc2cc(S(=O)(=O)N3CCCC(C(=O)NCCc4ccccc4)C3)ccc21` (stereo not drawn), the activation is inactive: -5.74%. On to `Cc1ccccc1C(=O)Nc1c(C)nc2ccccn2c1=O`, for which the activation is inactive: -4.68%. Take `Cc1c(C)c2c(c(C)c1OC(=O)CCC(=O)OCCO)CC[C@@](C)(CCC[C@H](C)CCC[C@H](C)CCCC(C)C)O2`: the activation is inactive: 0.0016%. `CCc1ccc(S(=O)(=O)c2cn(Cc3ccccc3F)c3cc(OC)c(OC)cc3c2=O)cc1`: the activation was inactive: -20.2%. On to `COc1ccc(NC(=O)CSc2nnc(NC(=O)NC3CCCCC3)s2)cc1OC`, for which the activation is inactive: -2.41%.

Consider `CCOc1ccc(C2c3[nH]c4ccccc4c3CCN2C(=O)CSCc2ccc(F)cc2)cc1` (stereo not drawn), for which the activation was inactive: -33.6%. Next, `Cc1cccc(CNC(=O)c2ccc3nc(Cc4ccccc4)oc3c2)c1`: inactive: -25.3%. In the case of `O=C(NCCc1ccccc1)c1nn(-c2ccc(F)cc2)nc1CO`, the activation is inactive: -6.41%. In the case of `Cc1ccc(CCNC(=O)c2c3c(nc4ccccc24)C(=O)N(C2CCCCC2)C3)cc1` it was inactive: -18.7%. For the molecule `Cc1cc(S(=O)(=O)NCC(c2ccco2)S(=O)(=O)c2cccs2)ccc1F` (stereo not drawn), the activation is inactive: -9.48%. For the molecule `Cc1cccc(NC(=O)CS(=O)(=O)c2cccc3nsnc23)c1`, the activation was inactive: 8.94%. With `CCOc1ccc(NC(=O)CSc2nnc(-c3ccc(OCC)cc3)o2)cc1`, the activation was inactive: -7.2%. Next, `Cc1ccc(NC(=O)Cn2c(=O)n(Cc3nc(-c4ccccc4)no3)c(=O)c3ccccc32)cc1C`: inactive: 1.43%; `COC(=O)c1ccccc1NC(=O)CSc1nc(=O)cc(N)n1-c1ccccc1`: inactive: -7.5%; `CCOc1ccc(CCNC(=O)CCCc2nnc3n(CC)c(=O)c4sccc4n23)cc1OCC`: inactive: 1.74%. Next, `Cc1cccc(NC(=O)COc2ccc(-c3nn(C)c(=O)c4ccccc34)cc2)c1`: inactive: 46.6%. As for `Cc1coc2cc3oc(=O)c(CC(=O)NCc4cccc(Cl)c4)c(C)c3cc12`, the activation was inactive: 25.4%.

Turning to `Cc1ccc(CNC(=O)c2c(-c3ccccc3Cl)noc2C)o1`, the activation was inactive: -18.7%.

On to `COc1cc(OC)c(NC(=O)CN2CCCN(Cc3ccccc3C)S2(=O)=O)cc1Cl`, for which the activation is inactive: 27.7%. Turning to `COc1ccc(CNC(=O)Nc2ccc3c(c2)N(C)C(=O)c2ccccc2S3)cc1OC`, the activation was inactive: -8.92%. As to `CN1CC(=O)NC1=N`, the activation was inactive: 11.7%. With `COc1cc2ncc(C(=O)c3ccc(C)cc3)c(N3CCCCC3)c2cc1OC`, the activation was inactive: 11%. Next, `CC(CNC(=O)c1nnc(Cc2ccc(F)cc2)o1)c1ccccc1` (stereo not drawn): inactive: -21.8%; `Cc1ccc(-n2nc3c(=O)n(CC(=O)NCCC(C)C)nc(C)c3c2C)cc1`: inactive: 2.58%. In the case of `Nc1ncn([C@H]2C[C@H](O)[C@@H](CO)O2)c(=O)n1` it was inactive: -20.3%; in that of `NCCCCNCCCN`, inactive: 1.48%. With `COCCCNC(=O)Cn1c(=O)nc(-c2ccccc2)c2ccccc21`, the activation is inactive: -9.51%. With `CCOc1ccc(CCNC(=O)c2cc(C)nc3c2c(C)nn3-c2cccc(F)c2)cc1`, the activation is inactive: -17.1%. With `Cc1cccn2c(=O)c(C(=O)NCCc3ccccc3)cnc12`, the activation is inactive: -11.2%.

With `COc1ccc(Cn2cc(C(=O)c3ccc(C)c(C)c3)c(=O)c3ccccc32)cc1`, the activation is inactive: 7.06%. For the molecule `CCCCC12CN3CC(C)(CN(C1)C3c1ccc(O)c(OC)c1)C2=O` (stereo not drawn), the activation was inactive: -20.2%. Take `O=C(Cn1cc(S(=O)(=O)Cc2cccc(Cl)c2)c2ccccc21)Nc1ccccc1Cl`: the activation is inactive: -10.9%. In the case of `COc1cccc(NC(=O)CSc2nccn2C2CCCC2)c1` it was inactive: -7.4%; in that of `C[C@@H](c1ncncc1F)C(O)(Cn1cncn1)c1ccc(F)cc1F` (stereo partly drawn), inactive: 7.22%; in that of `COc1ccc(CNCCC(c2ccc3c(c2)OCO3)c2ccccc2OC)cc1` (stereo not drawn), inactive: -14.1%. In the case of `O=C(NC1CCCC1)c1ccc2c(c1)N(Cc1ccccc1)C(=O)c1ccccc1S2` it was inactive: -30.6%; in that of `CC1CCN(c2nc3ccc(C(=O)NCc4ccccc4Cl)cc3s2)CC1`, inactive: 16.2%; in that of `COc1ccc(C2=C(N3CCN(c4cccc(C)c4)C(C)C3)c3ccccc3C2=O)cc1` (stereo not drawn), inactive: -8.88%. Take `Cc1ccc(F)cc1NC(=O)Cn1c(C)cc(C)c(C#N)c1=O`: the activation was inactive: -13.5%. Turning to `COc1cccc(CNC(=O)Cc2c(C)c3ccc(OC)c(C)c3oc2=O)c1`, the activation is inactive: 30.8%.

As for `CC(C)(C(=O)c1cccnc1)c1cccnc1`, the activation is inactive: 5.81%. In the case of `O=C(NCc1cccc(Br)c1)c1ccc(NC(=O)N2CCCCc3ccccc32)cc1` it was inactive: -11.1%; in that of `COc1ccc(N2CCN(Cc3nc4c(c(=O)[nH]c(=O)n4C)n3CC(C)C)CC2)cc1`, inactive: -19.9%; in that of `Cc1ccc(S(=O)(=O)c2nnn3c2nc(NCCc2ccccc2)c2sccc23)cc1`, inactive: -20%. As for `Cc1csc2nc(COc3ccc(NC(=O)COc4ccccc4)cc3)cc(=O)n12`, the activation is active: 63.9%. For `CCOC(=O)C1CCN(C(=O)Cn2ncc3c4ccccc4n(Cc4ccc(F)cc4)c3c2=O)CC1`, the activation is inactive: -19.1%. In the case of `COc1ccc(S(=O)(=O)c2c(O)c3ccc(C(=O)NCc4ccc(Cl)cc4)cc3[nH]c2=O)cc1` it was inactive: 5.9%; in that of `C=CCc1ccccc1OCc1nc2ccccc2n1CC`, inactive: -15%. In the case of `CCN(Cc1ccccc1)C(=O)Cn1c(=O)n(-c2cccc(C)c2)c(=O)c2c1c1cc(C)ccc1n2C` it was inactive: -8.37%; in that of `CC(=O)N(O)CCCCCNC(=O)CCC(=O)N(O)CCCCCNC(=O)CCC(=O)N(O)CCCCCN`, inactive: -0.287%; in that of `Cc1ccc2oc3c(c(=O)c2c1)C(c1ccc([N+](=O)[O-])cc1)N(CCCN1CCOCC1)C3=O` (stereo not drawn), inactive: -5.5%. As to `CC(C)(C)C(=O)Cn1c(=O)n(-c2ccccc2)c(=O)c2c3c(sc21)CCC3`, the activation was inactive: 4.76%. For the molecule `Cc1ccc(NC(=O)CN2C(=O)COc3ccc(S(=O)(=O)NC4CCCC4)cc32)cc1Cl`, the activation is active: 106%. On to `O=C(CN1C(=O)c2cccnc2Oc2ccc(Cl)cc21)NCCc1ccccc1`, for which the activation is inactive: -10.8%. On to `O=C(O)Cc1cccc(-c2cc(CCCCCCc3ccc(O[C@H]4O[C@H](CO)[C@@H](O)[C@H](O)[C@@H]4O)c(-c4cccc(CC(=O)O)c4)c3)ccc2O[C@H]2O[C@H](CO)[C@@H](O)[C@H](O)[C@@H]2O)c1`, for which the activation was inactive: -21.5%. Take `Cc1cc(NC(=O)CSc2ncc(C(=O)Nc3ccc(Cl)cc3)c(=O)n2C)no1`: the activation was inactive: -11%.

With `CCOC(=O)c1c(-c2ccc(C)cc2)csc1NC(=O)c1cc(-c2ccc(C)c(F)c2)on1`, the activation is inactive: -1.49%. Turning to `CCCCNc1ccc(-c2nc(-c3ccco3)no2)cc1[N+](=O)[O-]`, the activation is inactive: 10.7%. For `Cc1ccc(CNC(=O)CN(c2cccc(C)c2C)S(=O)(=O)c2ccccc2)cc1`, the activation was inactive: -11.5%. Take `NC(Cc1cccc(-c2ccccc2CP(=O)(O)O)c1)C(=O)O` (stereo not drawn): the activation was inactive: -0.422%.

In the case of `CCC(CC)C(=O)Nc1ccc2nc(SCC(=O)N3CCc4ccccc43)sc2c1`, the activation is inactive: 23.5%.

For `Cn1c2ccccc2c2cnn(CC(=O)N3CCN(c4cccc(C(F)(F)F)c4)CC3)c(=O)c21`, the activation is inactive: 13.3%. `Cc1cccc(N2CCN(S(=O)(=O)c3cc(Cl)ccc3Cl)CC2)c1C`: the activation is inactive: -9.27%. In the case of `CC(=O)c1cccc(NC(=O)C2CCCN(C(=O)c3cnn(-c4ccccc4)c3-n3cccc3)C2)c1` (stereo not drawn) it was inactive: 4.49%; in that of `CCOc1ccc(C(=O)Nc2cccc(NC(=O)c3ccc(C(C)(C)C)cc3)c2)cc1Br`, inactive: 15.1%. Regarding `O=C(c1ccc2c(c1)N(Cc1ccc(F)cc1)C(=O)c1ccccc1S2(=O)=O)N1CCN(Cc2ccccc2)CC1`, the activation is inactive: 10.7%. As for `Cc1ccc(-c2ccccc2C#N)cc1`, the activation was inactive: -44.3%. `COc1ccc(-c2nc(SCC(=O)Nc3ccc4c(c3)OCCO4)c(-c3ccc(F)cc3)[nH]2)cc1OC`: the activation was inactive: -21.4%. For the molecule `COc1ccc(CC(=O)NCc2ccc3c(c2)CCN3C(C)=O)cc1`, the activation is inactive: -19.9%.

In the case of `CC1=C(C(N)=O)C(c2ccc(F)cc2)n2nc(-c3ccccc3Cl)nc2N1` (stereo not drawn), the activation is inactive: -19%. For `COc1ccc(C(=O)NNc2ncnc3c2cnn3-c2ccc(C)c(Cl)c2)cc1`, the activation is inactive: 7.89%. For the molecule `COc1ccc(NC(=O)c2c(NC(=O)c3ccncc3)sc3c2CCC(C(C)(C)C)C3)cc1` (stereo not drawn), the activation was active: 65.7%. Turning to `COc1cccc(Cn2c(=O)n(CCc3ccccc3)c(=O)c3c2c2cc(OC)ccc2n3C)c1`, the activation was inactive: -25.9%. In the case of `Cc1ccc(Cl)cc1NC(=O)C1CCN(S(=O)(=O)c2cccc3nonc23)CC1` it was inactive: 45%. Consider `CCOc1ccc(N(CC(=O)Nc2ccccc2CC)S(=O)(=O)c2c(C)noc2C)cc1`, for which the activation is inactive: -19.5%. Turning to `CC(=O)SC[C@@H](Cc1ccccc1)C(=O)NCC(=O)OCc1ccccc1`, the activation was inactive: -36.3%.

`COc1cc(NC(=O)C(Cc2ccccc2)NS(=O)(=O)c2cccc3nsnc23)cc(OC)c1` (stereo not drawn): the activation is inactive: -34%. With `Cc1cccc(NC(=O)CSc2nc3ccccc3nc2N2CCCCC2)c1C`, the activation was inactive: -3.18%.

Turning to `O=C(Cn1ccn(-c2ccc(F)c(F)c2)c(=O)c1=O)NCCc1ccccc1`, the activation was inactive: -10%.
